From a compilation of properties of binary mixtures (doi:10.1080/00319100600744993) come the findings set out here.

The data set is described as follows: xn = mol fraction of the nth substance listed. To be noted: 298.15 K, 101 kPa.

The densities may have been worked out from excess volumes.

A word on the mass density: it is the mass of a sample divided by its volume. Turning to `CCO` + CCCCCC[n+]1ccn(C)c1.[Cl-], for the setting “x1 = 1”, the mass density was determined as 785.4 kg/m3.

With `CCCCCC[n+]1ccn(C)c1.[Cl-]` + CCO, the mass density is listed as 1040.4 kg/m3 (x2 = 0); 1032.8 kg/m3 (x2 = 0.098); 1024 kg/m3 (x2 = 0.196); 1014 kg/m3 (x2 = 0.2898); 972.7 kg/m3 (x2 = 0.568); 857.5 kg/m3 (x2 = 0.903). This compound registered a mass density (x2 = 0.9047) of 857 kg/m3 and a mass density (x2 = 0.9445) of 831.5 kg/m3.

As to `CCCCCC[n+]1ccn(C)c1.[Cl-]` + O, the mass density amounted to 1042.2 kg/m3 (x2 = 0.3013), 1042.3 kg/m3 (x2 = 0.389) and 1023.6 kg/m3 (x2 = 0.9088).
